Reference: the supplement of paper PMC3334620
Whole data set: some 33,000 sequences, median “E-score (-0.5 to 0.5)” near -0.013, cut for the highest 2% near 0.3. Some of the results follow.

What follows are sequences tested against T1, Msn1 (UniProt P22148) (assay: PBM E-score (8-mer binding enrichment) (E-score (-0.5 to 0.5)); higher = stronger / more preferred TF binding; most listed sequences are background and not binding sites). Conditions: protein concentration: 200 nM; construct: GST-full length.
T1 sequence: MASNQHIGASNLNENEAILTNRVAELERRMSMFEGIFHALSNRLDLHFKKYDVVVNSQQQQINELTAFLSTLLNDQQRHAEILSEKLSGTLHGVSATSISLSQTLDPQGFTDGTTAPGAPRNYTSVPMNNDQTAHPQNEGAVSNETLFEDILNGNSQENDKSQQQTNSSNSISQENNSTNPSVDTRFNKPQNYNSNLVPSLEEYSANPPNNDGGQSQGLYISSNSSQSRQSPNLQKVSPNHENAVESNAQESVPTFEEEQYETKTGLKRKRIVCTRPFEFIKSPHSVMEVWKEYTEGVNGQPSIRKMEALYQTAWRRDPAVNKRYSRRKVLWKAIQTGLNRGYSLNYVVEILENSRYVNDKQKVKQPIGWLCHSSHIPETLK
Summary of the method: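 Yeast transcription factors, full-length or as DNA-binding domains, were expressed with a GST tag using PURExpress in vitro transcription/translation. At about 100-200 nM they were applied to universal all-10-mer Agilent arrays, double-stranded by primer extension on fresh or once-stripped slides. Fluorescent anti-GST detected bound protein, and masliner normalised the scans. E-scores for ungapped eight-base words, pooled with reverse complements, came from the Universal PBM Analysis Suite.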

Point of comparison: CATTCACG, “PBM E-score” value 0.0343. Against it:
- ATGGCTGA — lower, -0.133
- CGCCGGAC — higher, 0.118
- AATCGAAG — higher, 0.125
- ATTTGCGG — higher, 0.249
- CCGATGCC — lower, -0.0116
- TAGCGAGA — higher, 0.0828
- GAATTAGA — higher, 0.173
- ACACTTTG — higher, 0.12
- ACAACTTC — higher, 0.192
- CGGCCTCA — lower, -0.159
- AGCTCGTC — lower, -0.0144
- TTATGAAA — higher, 0.101
- GCTGCAAA — higher, 0.145
- ATTAGTAG — lower, 0.00551
- GACTATCC — lower, -0.144
- CAGAGACA — higher, 0.204
- CTCCCATC — lower, -0.22
- GCCACGGA — lower, -0.0843
- AACAACTT — higher, 0.193
- ACACCTCT — lower, -0.181
- CTCACCCA — lower, -0.0776
- CCGGGTAC — lower, -0.131
- CCGCAAAA — lower, 0.00778
- ATTAGACC — lower, -0.103
- CGGGCCCA — lower, -0.116
- AGGACCCC — lower, -0.137
- CCGATTCA — lower, -0.0358
- GTGGGAAA — lower, 0.0298
- CAACGACC — lower, -0.156
- CGTTCAAA — lower, -0.0237
- CATTGCGA — lower, -0.0316
- AGTTCCTG — lower, -0.109
- TGGCTCAA — lower, -0.065
- AATCTGAT — lower, -0.08
- CCTCTTAC — lower, -0.0706
- GGGTTAAC — lower, 0.00387
- CAGCGTCA — lower, -0.206
- CCAGGTCA — lower, -0.164
- AGCAAACA — lower, -0.00127
- CATTGAGA — lower, 0.0342
- GGATTCCC — lower, -0.292
- ACTACCTA — lower, -0.108
- GCTCTGCC — lower, -0.281
- CCCTAGCA — lower, -0.119
- GGTTTGCA — lower, -0.172
- AGCTTGGG — lower, -0.0922
- CGACGAAG — higher, 0.197
- CTATAGAC — lower, -0.0671
- GTGTAGAA — lower, -0.14
- CCAAAGCA — lower, 0.0177
- AATTACCC — lower, 0.0245
- CCAGAACC — lower, -0.0365
- GAAATGAA — higher, 0.145
- CAGAATGA — higher, 0.0577
- AACCATTG — lower, -0.055
- ATCCTTGC — higher, 0.0639
- ATATAATA — higher, 0.246
- CACGCGTC — higher, 0.155
- GGGTAACA — higher, 0.0748
- CGCCATGC — lower, -0.16
- AGAGGTCA — lower, -0.168
- CGCCGTGA — higher, 0.0625
- CACGGGGC — lower, -0.217
- CGCCTTAA — lower, -0.0314
- CGTGGAAG — higher, 0.0386
- GGGGGACA — higher, 0.287
- GGACCTAA — higher, 0.0993
- GGTGTGGA — lower, -0.094
- ATCACTTC — higher, 0.11
- CCCTTAAC — lower, -0.272
- AGACCCTC — lower, -0.0895
- CACGGGCA — lower, -0.196
- CAGTAACC — higher, 0.0542
- ATTCCCCA — lower, -0.0584
- GGTTATCA — lower, -0.115
- CTTCTGGC — lower, -0.249
- AACTTTGT — higher, 0.197
- AGCGAGAC — lower, -0.0133
- CTTTTGTA — higher, 0.3
- ACGACGGG — lower, -0.0714
- CTCATGCC — lower, -0.111
- GTGGTGAA — lower, -0.109
- TGCAACCA — lower, -0.0602
- CCTGGACA — higher, 0.417
- CTGCACCA — lower, -0.265
- CCAGGCAA — lower, -0.0261
- CCTAGTAC — higher, 0.0781
- GTGTATCA — higher, 0.255
- GGACCCTA — lower, -0.199
- GCTGCGGA — higher, 0.064
- CAGCACAC — lower, -0.093
- ACAACAAG — higher, 0.116
- TTCGACAA — higher, 0.191
- ACTTCCCC — lower, -0.219
- ACGTGCAT — lower, -0.106
- CTAGCACA — lower, -0.206
- CGAGTAAC — higher, 0.0849
- CCCCAACG — higher, 0.086
- CTTAGGGA — lower, -0.169
- ACTCGTCA — lower, -0.132
- AAGTTAGG — lower, 0.0209
- ACTCCATC — higher, 0.106
- AGTGTCAG — higher, 0.063
- GACTCTAC — lower, -0.253
- ATGGATGC — higher, 0.0578
- CAGTACTG — lower, -0.103
- ATTAACCG — higher, 0.144
- TACTGGAA — higher, 0.0647
- CGGTCTAG — higher, 0.0838
- GGAGGGCA — lower, -0.262
- CAATTTCA — higher, 0.101
- AAAATACG — higher, 0.0427
- CACAGCGC — lower, 0.0236
- GTCCTAAC — higher, 0.36
- CAATCGTA — higher, 0.126
- AAGGGGGG — lower, -0.442
- ACTAGGGC — lower, -0.17
- ATCCAAAG — higher, 0.138
- CGCCGCCG — lower, -0.15
- TGCACAAA — higher, 0.215
- AGCCATAC — lower, -0.102
- CCCGGATC — lower, 0.0149
- CAGGGTCG — lower, -0.224
- AAAGATCC — lower, -0.12
- AGGTTCCG — higher, 0.0578
- CTCTTTTA — lower, -0.139
- AAGATCGT — lower, 0.0158
- CGGAATAA — lower, -0.0267
- ATGGTAAA — higher, 0.156
- CTTTTTAC — higher, 0.0646
- CACTGCAC — lower, -0.0104
- AGTTCTTG — higher, 0.0615
- AAATCGTA — lower, 0.0196
- GTGTGTGA — lower, -0.0578
- GAATGGTA — higher, 0.0817
- ATGGCAAC — higher, 0.0906
- GTTCTTCA — higher, 0.128
- CACACAGG — lower, -0.0431
- GATGTTGC — lower, -0.0559
- ACAGACTC — lower, -0.14
- CACCCACG — higher, 0.0403
- ATATGGCA — lower, -0.0465
- GCTGCCAA — lower, -0.23
- ACCAGTTA — lower, 0.0334
- CGCTGTCA — lower, -0.00333
- CCGTTTAA — higher, 0.125
- AGTGTCTC — higher, 0.0356
- AATCCTCG — lower, -0.116
- AGACCTTA — higher, 0.0418
- TATAATAA — higher, 0.194
- TTTCCAAA — lower, -0.0383
- AGATTACG — higher, 0.0842
- CCAATGGG — lower, -0.175
- GTTGATGA — higher, 0.0432
- ACTCATGA — higher, 0.101
- TATATAAA — higher, 0.253
- ACCTCACC — lower, -0.229
- CATTCTCA — higher, 0.188
- AATTTATG — higher, 0.207
- CACGGCCG — lower, -0.118
- GATTTTGA — higher, 0.216
- CATACGCA — lower, -0.00892
- AGGACGAC — lower, -0.102
- ATCTCTTC — higher, 0.0787
- ACTCGCGC — lower, 0.0147
- CGAAAATA — higher, 0.118
- GAGAGTTA — lower, -0.0018
- CCATTACC — lower, -0.057
- AGATCAGC — lower, -0.2
- TGGGTCAA — lower, -0.0713
- CATCCGCA — higher, 0.0727
- CGACGACG — lower, -0.0678
- CTTTATTA — higher, 0.135
- AAACTTAT — higher, 0.129
- AGGCAAGA — lower, -0.0214
- CACGTTCC — lower, -0.0731
- ATGAAGCG — lower, -0.0739
- ACCGGTTC — lower, -0.0882
- CATCTAGC — lower, -0.0457
- CAAGCTAG — lower, -0.189
- CGCGACGA — higher, 0.171
- AGGTCGCC — lower, -0.164
- AGAGTAGA — higher, 0.0921
- CAAACACA — higher, 0.189
- GACGCCCA — lower, -0.0257
- AACTAAGG — lower, -0.076
- AAGGCGTG — higher, 0.0605
- CGACCCTC — lower, -0.103
- GGCTTTGA — lower, -0.154
- GAGAAGCA — lower, -0.127
- CTAATAAA — higher, 0.142
- AGGCGAAC — lower, 0.00179
- CAATAGAC — higher, 0.193
- GAGAGGGA — lower, -0.069
- ATCCCTAC — lower, -0.0219
- AGCTAACA — lower, -0.234
- CCGTTAGG — lower, -0.00238
- AGGCCAAT — lower, -0.072
- ACATCCCA — higher, 0.14
- GTCGACAC — higher, 0.141
- CATCGTAC — lower, -0.0141
- TACGTAAA — higher, 0.211
- CACCTTAA — higher, 0.0736
- GTGTTGGA — higher, 0.036
- CGGGTCAA — lower, -0.0135
- CCAGCCCC — lower, -0.304
- TGGTCAAA — higher, 0.196
- AATTATGG — higher, 0.116
- TGTGAACA — lower, -0.0381
- AATCAGGG — lower, -0.19
- ACGGGACG — lower, -0.189
- GTCAGCGA — lower, -0.0344
- ATGAATTG — lower, 0.023
- GCACCCCA — lower, -0.308
- ATATTCAG — higher, 0.114
- CCCACCAG — lower, -0.236
- ATGAGTCA — higher, 0.0385
- CAAGTCCG — higher, 0.0478
